doi:10.1101/522284 (bioRxiv, 2019)

Biological target: the molecule itself
Experiment: density gradient centrifugation

B1: Tau-RD* (FLAG-tagged human Tau-RD, […], ΔK280) (domain or fragment)
chain: not shown
binding result: binds
